Laboratory results from the RNAGym collection of RNA variant scans (doi:10.7554/elife.90254).
The source gives no read counts; variants with many changes may rest on few reads.

B1: LINE1-full (parent)
chain: UACGUAGGUGGUUUUCCCCUGAUAGUGCUAAGGGGGCCUGGAAGUUUGGACUGGGCAGAGCUCAACACAGCGUGGCAAAGUGGCUGUGGCUAGACUGCCUCUCUGGAUUCCUCGUCACUCAGCAGGGCAUCUCUGAGAGAAAUGCC

Variants of: B1
Assay: self-cleavage, relative activity (ratio to wild type); higher = more cleavage; in vitro, sequencing; the parent is a self-cleaving ribozyme

Variant	self-cleavage
U13C A50G A117U U143A	1.59
U13C A24G A129U	1.09
U13A U46G A79G	1.15
U13A A92U U102C U143C	0.89
U13C A31U G80A A140U	0.93
U13C A31U U130C	0.92
U13C A31G U108C A142C	0
U13A U119A A124U	0.97
U13C A42U U119C U134C	1.48
U13C A43U A129U	1.25
U13A A78G A124G	0.58
U13A U91C U102C	0
U13A G35A U108A C118U	0.6
U13C A57G A78U U91C	1.02
U13A C28U U47C	0.67
U13A U14C A59G U85G	0
U13A A22G G41A A77G	1.45
U13C A43G A67U U96C U119C	0.29
U13A U23C A50U A59G A69U A117G	0
U13A G35A G97A	0.06
U13A U112A A138G	1.33

Variant	self-cleavage
U13C A31C U52A G86U U102C A136G A140G	0.13
U13C A50G U112A A136G	2.42
U12G U108A A124G	1.02
U13A U46C G70A	0.15
U13C A22G A59U U112C	0.46
U12G U102C C123U	1.45
U13C A43U U115A	1.41
U13A A42G A77G C84U A94U U134A	0.02
U13C A31U A124U	1.07
U13A A31U U96C	0.04
U13C A30G C84G A117U	0.22
U13A A59G U81C U108C A136U	0
U13A U20C A30G U47C U85A U104C	0
U13C A24G U46G U85C U132C	0
U13C A42G U81C U109A A124G	0
U13A A124G A141G	1.25
U13C A24U A117G A142G	0
U12G U108C A138G	2.37
U13A U104A U119C	2.04
U13A G89A A136U A142G	0
U13A A22G A67G	0.68

Variant	self-cleavage
U12G U130C A138G	1.75
U13A C28U U102C A140G	1.28
U13A A67U G97A U119C U134C	0.05
U13A A22G U46C A50G A136G	2.04
U13C A31G U85C U134A U143A	0
U13A U39C C101U U115C	0.63
U13A A50G U85A U96A	0.07
U12G U81A U115G U132C	1.99
U13A U14C U62C A121C	0
U12G U87A U91C	0.31
U13A U15C A42G U134C	0.5
U13C A30G G36A U87C U96C	0
U13A G33U C84U C90U C110U U112C A136G A142G	0.01
U13A U26C U47C G72A	1.02
U13C A42G A140G	0.99
U13A U109C A121G A124G U134A	1.25
U13A A31U U39C A65G A124U A140G	0
U13C A57C A138G	0
U13C A43G A136U A140G	0.32
U13A U81C U87C A138G	0.13
U13C A22G U26A	0.49

Variant	self-cleavage
U13A C28A A94G U104C U132A	0.24
U13A U15C G58A U96C	0.14
U13C A31G G41A A65U A67G U87C	0.74
U13A A22U U108C A140U	0.66
U13C A42G A57G A117G C128U	2.04
U12G U115C C123U U134G A141G	1.4
U13C A30G U62A G105A U109A	0.14
U13A U39C U62A U87G U109C	0
U13C A42G U132C	0.66
U13A A43G U62A	0.08
U13C A42U G54A	0.22
U13C A43G A57G	0.48
U13A A78G A124U A136G	1.21
U13A A22U A30U	0.76
U13A U109C U112C	1.15
U13C A43U U143C	2.11
U13A U62C C113U A141G U143C	0
U13A G32C A107G	1.67
U13C A42G U45A A67G A124G	0
U13C A43G A50U A57G	0
U13A U62A U102A G137C	0
